From PubChem BioAssay AID1745853 (National Center for Advancing Translational Sciences (NCATS), 2022)
The other results are listed elsewhere or left out. These are further read-outs of the screen, such as a control signal, another cell line or another target. No call is given for them.

What was measured:
Assay in all cases: Primary Screen for Target Class Profiling of Small Molecule Inhibitors of Methyltransferases
[1] = target: Glycine N-methyltransferase (Homo sapiens) (UniProt Q14749); settings: purified enzyme, MTase-Glo SAH luminescence; measured here: GNMT inhibition; at 40 µM; stronger effect = lower value
Source text: (§1) PI: Matthew D. Hall Ph.D. and Quinlin M. Hanson Ph.D.
(§2) National Center for Advancing Translational Sciences (NCATS)
(§3) National Institute of Health (NIH), Rockville, MD
(§4) Target class profiling (TCP) is a chemical biology approach amenable to investigating understudied biological targets. TCP is achieved by developing a generalizable assay platform and applying it to screen a curated set of compound libraries against representative members of a target class. Small molecule methyltransferases (SMMTase) are a subclass of methyltransferase that act on metabolites to modulate signaling pathways, metabolize xenobiotics, or balance the available methyl pool. We screened four curated libraries totaling 27,574 unique compounds against the SMMTases nicotinamide N-methyltransferase (NNMT), phenylethanolamine N-methyltransferase (PNMT), histamine N-methyltransferase (HNMT), glycine N-methyltransferase (GNMT), catechol O-methyltransferase (COMT), and guanidinoacetate N-methyltransferase (GAMT). The data generated by this TCP can be leveraged for informed tool molecule development. For example, in the associated publication we identified a chemotype of HNMT-selective inhibitors. Additionally, we identified a putative SMMTase-selective inhibitor with potential as a tool molecule for studying broader methyltransferase biology.
(§5) High-through put screening assays were developed at the National Center for Advancing Translational Science (NCATS) for the enzymes NNMT, PNMT, HNMT, GNMT, COMT, and GAMT. Enzymatic activity was measured as a function of SAM cofactor conversion using the MTase Glo kit (Promega) for all enzymes. All assays were performed in 1536-well format with substrates and SAM concentrations at KM values. Enzyme concentration and assay timing were optimized for 10-20% SAM conversion. Initial screening of 27,574 compounds was done as single-point assays using the highest compound concentration (40 uM). […] These compounds were replated in 11-point dose response and assayed against NNMT, PNMT, HNMT, GNMT, COMT, GAMT, and a counter-assay. The IC50 and efficacy (maximal response) values were determined for each dose-response curve. These values are also accounted for in the area under the curve (AUC) values.
(§6) PROTOCOL TABLE (as described by Inglese J, Shamu CE and Guy RK. 2007)
(§7) SEQUENCE No. (e.g., 1, 2, 3, etc.); […] (e.g., Cells, Incubation, Reagent, etc.); VALUE; DESCRIPTION.
(§8) 1; Reagent; 2 uL; SMMTase Enzyme (2x) in reaction buffer, columns 1- 48.
(§9) 2; Reagent; 1 uL; SAM (4x) in reaction buffer, columns 1-48.
(§10) 3; Controls; 23 nL; DMSO in column 4; sinefungin in DMSO (0 uM - 40 uM) in 7-point 1:2 dilution series (n = 2) in column 2.
(§11) 4; Compounds; 23 nL; Columns 5-48.
(§12) 5; Reagent; 1 uL; Substrate (4x) in reaction buffer, columns 2-48.
(§13) 6; Time; 20-30 min; Incubation.
(§14) 7; Reagent; 1 uL; MTase-Glo reagent (5X), columns 1-48.
(§15) 8; Time; 30 min; Incubation.
(§16) 9; Reagent; 5 uL; MTase-Glo Detection reagent, columns 1-48.
(§17) 10; Time; 30 min; Incubation, luminescence evolution.
(§18) 11; Detection; Luminescence; ViewLux uHTS Microplate Imager (PerkinElmer).
(§19) NOTES (numbers refer to Sequence numbers above)
(§20) 1, 2, 5. White Medium Binding Greiner 1536-well plates (Cat #789175-F, Greiner Bio-One, Monroe, NC); Reaction buffer: 50 mM Tris, pH 8.0, 3 mM MgCl2, 1 mM EDTA, 50 mM NaCl, 1 mM DTT, and 0.1 mg/mL BSA. Evaporation was prevented by covering assay plates with metal lids containing holes to allow gas diffusion.
(§21) 1. Six SMMTase were profiled: HNMT, GNMT, PNMT, COMT, NNMT, GAMT
(§22) 5. The corresponding substrate was used for each enzyme: HNMT - 5.3 uM Histamine; GNMT - >500 uM Glycine; PNMT - 16.2 uM Norephinephrine; COMT - 13.7 uM Norephinephrine; NNMT - 3.8 uM Nicotinamide; GAMT - 2.5 uM Guanidinoacetate.6, 8, 10. Room temperature
(§23) 6. Final reaction conditions: 10 nM COMT, 5 uM SAM, 15 uM norepinephrine, 50 mM Tris, pH 8.0, 3 mM MgCl2, 1 mM EDTA, 50 mM NaCl, 1 mM DTT, and 0.1 mg/mL BSA; refer to tables 2 and S1 for specific timing.
8. […]

[2] = target: Guanidinoacetate N-methyltransferase (Homo sapiens) (UniProt Q14353); settings: purified enzyme, MTase-Glo SAH luminescence; measured here: GAMT inhibition; at 40 µM; stronger effect = lower value
Source text: as §1, §2, §3, §4, §5, §6, §7, §8, §9, §10, §11, §12, §13, §14, §15, §16, §17, §18, §19, §20, §21, §22, §23
8. […]

[3] = target: Histamine N-methyltransferase (Homo sapiens) (UniProt P50135); settings: purified enzyme, MTase-Glo SAH luminescence; measured here: HNMT inhibition; at 40 µM; stronger effect = lower value
Source text: as §1, §2, §3, §4, §5, §6, §7, §8, §9, §10, §11, §12, §13, §14, §15, §16, §17, §18, §19, §20, §21, §22, §23
8. […]

[4] = target: Nicotinamide N-methyltransferase (Homo sapiens) (UniProt P40261); settings: purified enzyme, MTase-Glo SAH luminescence; measured here: NNMT inhibition; at 40 µM; stronger effect = lower value
Source text: as §1, §2, §3, §4, §5, §6, §7, §8, §9, §10, §11, §12, §13, §14, §15, §16, §17, §18, §19, §20, §21, §22, §23
8. […]

[5] = target: Phenylethanolamine N-methyltransferase (Homo sapiens) (UniProt P11086); settings: purified enzyme, MTase-Glo SAH luminescence; measured here: PNMT inhibition; at 40 µM; stronger effect = lower value
Source text: as §1, §2, §3, §4, §5, §6, §7, §8, §9, §10, §11, §12, §13, §14, §15, §16, §17, §18, §19, §20, §21, §22, §23
8. […]
% is scaled to controls: 0 for no effect and ±100 for the full control effect.

Row | Compound | activity change, negative = inhibition [1] [%] | activity change, negative = inhibition [2] [%] | activity change, negative = inhibition [3] [%] | activity change, negative = inhibition [4] [%] | activity change, negative = inhibition [5] [%]
1 | CCc1nc(NCCOC)ncc1C(=O)O | -1.93 | -0.681 | 1.02 | -5.39 | -2.71
2 | CS(=O)(=O)c1ccc(OCC2(CNCc3cccc(C(F)(F)F)c3)C[C@@H](O)[C@@H](O)C2)cc1 (stereo not given in full) | -3.69 | -2.15 | -0.777 | -7.36 | 2.02
3 | COC1C(=O)N(c2cccc(F)c2)C12CCN(S(=O)(=O)c1cccs1)CC2 (stereo not given) | -8.54 | -4.61 | -3.16 | -13.1 | -2.12
4 | Cc1ccc2[nH]c(=O)c(CCC(=O)NCc3ccco3)cc2c1 | -17.6 | 1.15 | 1.92 | -5.31 | -11.3
5 | C=C(C)[C@@]1(O)C[C@@]2(C)C(=CC1=O)CC[C@@H](O)[C@@H]2C | 0 | 3.52 | 3.72 | -9.15 | 5.42
6 | COc1ccc(OCC(O)CN2CCC(=O)N(CC3CC3)Cc3cc(OC)ccc32)cc1 (stereo not given) | -4.44 | 1.08 | -0.247 | -13.2 | -1.25
7 | CCN1C(=O)CCc2cc(NS(=O)(=O)c3cn(C)c(C)n3)ccc21 | -2.35 | 1.09 | -3.1 | -0.419 | -1.39
8 | CCOCCCN1C(=O)c2ccc(-c3ccco3)n2CC1(C)C(=O)NC1CCCC1 (stereo not given) | -2.3 | 4.62 | 2.27 | 6.63 | -0.16
9 | CCCCCOc1ccc2c(-c3ccccc3)cc(=O)oc2c1 | -5.71 | 0 | 0.207 | 0.395 | -8.35
10 | Cc1cc(C)cc(C(=O)NOCCCCCC(=O)NO)c1 | 0.463 | 5.12 | 9.05 | -6.15 | 5.29
11 | CN1C(=O)c2cc(C(=O)NCCc3ccco3)nn2CC1(C)C(=O)NCc1ccccc1 (stereo not given) | 2.19 | 0 | 0.993 | 8.34 | 2.5
12 | CCCN1C(=O)c2cc(C(=O)NCc3ccco3)nn2CC1(C)C(=O)NC1CCCC1 (stereo not given) | 5.85 | 0.557 | 3.66 | 4.98 | 2.22
13 | CCC(C(=O)N1CCc2onc(-c3ccc(F)c(F)c3)c2C1)n1cccn1 (stereo not given) | -0.483 | 0.312 | 2.37 | -6.67 | 3.69
14 | CCOc1ccc(CN2C(=O)c3ccc(-c4ccco4)n3CC2(C)C(=O)NC2CCCCC2C)cc1 (stereo not given) | -8.31 | 0 | 0.936 | -17 | -1.25
15 | CCn1nc(C(=O)O)c(=O)c2cc3c(cc21)OCO3 | -7.58 | 2.46 | -1.94 | -4.4 | 7.26
16 | CN(Cc1ccc(-n2cccn2)cc1)Cc1nc(Cc2cccc(F)c2)no1 | -1.98 | 0.24 | 1.69 | -0.601 | -4.03
